Consider four molecules from article PMC4132065 (2014).

The target of assay [1] is T1, LexA BD-Pxa2_NBD (S. cerevisiae) (UniProt P34230).
T1 sequence: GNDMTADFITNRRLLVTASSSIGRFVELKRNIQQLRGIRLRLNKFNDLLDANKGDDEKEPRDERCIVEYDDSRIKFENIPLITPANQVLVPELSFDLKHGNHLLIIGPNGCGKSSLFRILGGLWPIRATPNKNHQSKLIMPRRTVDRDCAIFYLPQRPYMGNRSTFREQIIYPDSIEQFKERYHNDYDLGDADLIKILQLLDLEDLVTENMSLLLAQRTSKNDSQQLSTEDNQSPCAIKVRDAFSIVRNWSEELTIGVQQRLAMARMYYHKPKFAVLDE
Kind of assay: two-hybrid; EGY48 (pSH18-34) reporter strain, Pxa2 fragment fused to LexA BD (pEG202) and partner fused to Gal4 AD (pACT2); beta-galactosidase on an X-gal plate, 16 h at 30°C, blue indicates interaction.

Assay [2] deals with T2, LexA BD-Pxa2_NBD-CT (S. cerevisiae) (UniProt P34230).
T2 sequence: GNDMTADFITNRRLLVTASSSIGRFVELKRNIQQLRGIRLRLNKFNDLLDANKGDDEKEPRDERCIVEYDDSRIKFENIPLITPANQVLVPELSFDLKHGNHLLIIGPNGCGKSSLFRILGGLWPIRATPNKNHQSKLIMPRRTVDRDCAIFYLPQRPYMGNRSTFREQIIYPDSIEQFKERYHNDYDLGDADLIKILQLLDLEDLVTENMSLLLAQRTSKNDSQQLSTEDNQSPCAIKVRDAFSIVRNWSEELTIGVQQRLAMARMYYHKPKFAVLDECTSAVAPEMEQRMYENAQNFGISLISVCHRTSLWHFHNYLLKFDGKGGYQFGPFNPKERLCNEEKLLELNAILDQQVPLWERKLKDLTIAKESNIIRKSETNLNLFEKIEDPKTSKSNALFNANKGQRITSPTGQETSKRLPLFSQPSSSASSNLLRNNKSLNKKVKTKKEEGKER
Described as above.

For assay [3], the target named is T3, Pxa2_NBD-CT-His6 (S. cerevisiae) (UniProt P34230).
T3 sequence: T2 sequence
In words: pull-down; His6-tagged Pxa2 fragments co-expressed with Pxa1_NBD-HA in yeast BJ2168; total extracts over Ni-NTA column at 4°C, 10 mM Tris pH 7.6, 150 mM NaCl, wash 25 mM imidazole, elution 250 mM imidazole; Western blot, E2 fraction normalised to total.

Assay [4] deals with T4, Pxa2_NBD-CT1+2-His (S. cerevisiae) (UniProt P34230).
T4 sequence: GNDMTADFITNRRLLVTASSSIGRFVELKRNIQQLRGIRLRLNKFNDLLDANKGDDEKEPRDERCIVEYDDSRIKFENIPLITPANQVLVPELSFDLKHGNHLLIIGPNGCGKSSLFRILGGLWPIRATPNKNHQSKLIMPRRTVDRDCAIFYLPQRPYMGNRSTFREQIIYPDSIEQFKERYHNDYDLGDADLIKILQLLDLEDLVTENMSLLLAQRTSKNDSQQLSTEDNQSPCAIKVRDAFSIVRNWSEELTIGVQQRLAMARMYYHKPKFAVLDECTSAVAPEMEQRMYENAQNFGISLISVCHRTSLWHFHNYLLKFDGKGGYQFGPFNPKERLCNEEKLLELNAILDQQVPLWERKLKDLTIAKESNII
Described as above.

The target of assay [5] is T5, LexA BD-Pxa2_CT (S. cerevisiae) (UniProt P34230).
T5 sequence: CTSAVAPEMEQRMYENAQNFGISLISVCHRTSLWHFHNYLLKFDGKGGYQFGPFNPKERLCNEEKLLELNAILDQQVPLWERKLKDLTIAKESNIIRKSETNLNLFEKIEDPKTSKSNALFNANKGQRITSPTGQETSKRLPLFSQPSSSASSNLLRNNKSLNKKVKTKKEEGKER
Kind of assay: two-hybrid; EGY48 (pSH18-34) reporter strain, Pxa2 fragment fused to LexA BD (pEG202) and partner fused to Gal4 AD (pACT2); beta-galactosidase on an X-gal plate, 16 h at 30°C, blue indicates interaction.

Assay [6] has as its target T6, LexA BD-Pxa2_NBD-CT1 (S. cerevisiae) (UniProt P34230).
T6 sequence: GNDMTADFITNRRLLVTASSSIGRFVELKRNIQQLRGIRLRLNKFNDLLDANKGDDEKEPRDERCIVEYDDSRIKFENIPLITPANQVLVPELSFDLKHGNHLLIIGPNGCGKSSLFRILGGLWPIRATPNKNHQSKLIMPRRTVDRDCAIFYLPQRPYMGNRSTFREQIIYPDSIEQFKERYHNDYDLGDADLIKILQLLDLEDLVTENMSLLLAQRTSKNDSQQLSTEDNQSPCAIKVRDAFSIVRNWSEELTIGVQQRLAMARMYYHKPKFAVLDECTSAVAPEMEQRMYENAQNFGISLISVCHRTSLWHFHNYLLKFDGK
The description is as above.

Assay [7] has as its target T7, LexA BD-Pxa2_NBD-CT1+2 (S. cerevisiae) (UniProt P34230).
T7 sequence: T4 sequence
Described as above.

These are yes or no findings as the source states them, for the method shown. For some of these results: In cells and extracts the contact can be indirect. Some entries that bind do so weakly or less than the wild type. Sequences can lack the tags named with a protein.

B1: Gal4 AD-Pxa1_NBD-CT (domain or fragment, UniProt P41909 500-870)
chain: SRLMHSIKDISQLTGYTNRIFTLLSVLHRVHSLNFNYGAVPSILSIRTEDASRNSNLLPTTDNSQDAIRGTIQRNFNGIRLENIDVIIPSVRASEGIKLINKLTFQIPLHIDPITSKSNSIQDLSKANDIKLPFLQGSGSSLLILGPNGCGKSSIQRIIAEIWPVYNKNGLLSIPSENNIFFIPQKPYFSRGGTLRDQIIYPMSSDEFFDRGFRDKELVQILVEVKLDYLLKRGVGLTYLDAIADWKDLLSGGEKQRVNFARIMFHKPLYVVLDEATNAISVDMEDYLFNLLKRYRFNFISISQRPTLIKYHEMLLEIGENRDGKWQLQAVGTDEAITSIDNEIEELERKLERVKGWEDERTKLREKLEII
Turning to B1, the binding result in assay [1] is “no binding”; in assay [2] it was “binds”.

B2: Pxa1_NBD-HA (domain or fragment, UniProt P41909 500-774)
chain: SRLMHSIKDISQLTGYTNRIFTLLSVLHRVHSLNFNYGAVPSILSIRTEDASRNSNLLPTTDNSQDAIRGTIQRNFNGIRLENIDVIIPSVRASEGIKLINKLTFQIPLHIDPITSKSNSIQDLSKANDIKLPFLQGSGSSLLILGPNGCGKSSIQRIIAEIWPVYNKNGLLSIPSENNIFFIPQKPYFSRGGTLRDQIIYPMSSDEFFDRGFRDKELVQILVEVKLDYLLKRGVGLTYLDAIADWKDLLSGGEKQRVNFARIMFHKPLYVVLDE
Take B2: the binding entry in assay [3] and in assay [4] was “binds” each time.

B3: Gal4 AD-Pxa1_NBD (domain or fragment, UniProt P41909 500-774)
chain: B2 chain
As to B3, the binding result in assay [5] is “no binding”; in assay [1] it was “no binding”; in assay [2] it was “binds”; in assay [6] it was “no binding”; in assay [7], “binds”.

B4: Gal4 AD-Pxa2_NBD (domain or fragment, UniProt P34230 399-677)
chain: T1 sequence
Turning to B4, in assay [5], the binding result is “binds”.
